The text below walks through data of publication PMC11306496.

Protein sequences, listed by entry. Tags and fused reporters are not part of them. Residues count along the entry.
GST-MyoVa medial tail (amino acids 1,110-1,440) (Q9QYF3, residues 1110-1440): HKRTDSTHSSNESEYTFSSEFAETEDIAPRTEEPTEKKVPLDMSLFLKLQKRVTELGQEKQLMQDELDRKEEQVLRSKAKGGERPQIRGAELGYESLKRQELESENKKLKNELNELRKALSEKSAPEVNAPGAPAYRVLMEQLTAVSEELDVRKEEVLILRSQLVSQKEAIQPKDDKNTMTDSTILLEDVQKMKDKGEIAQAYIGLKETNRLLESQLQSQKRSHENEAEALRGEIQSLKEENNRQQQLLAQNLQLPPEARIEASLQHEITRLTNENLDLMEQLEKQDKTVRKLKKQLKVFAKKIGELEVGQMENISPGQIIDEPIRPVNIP
UniProt P70569: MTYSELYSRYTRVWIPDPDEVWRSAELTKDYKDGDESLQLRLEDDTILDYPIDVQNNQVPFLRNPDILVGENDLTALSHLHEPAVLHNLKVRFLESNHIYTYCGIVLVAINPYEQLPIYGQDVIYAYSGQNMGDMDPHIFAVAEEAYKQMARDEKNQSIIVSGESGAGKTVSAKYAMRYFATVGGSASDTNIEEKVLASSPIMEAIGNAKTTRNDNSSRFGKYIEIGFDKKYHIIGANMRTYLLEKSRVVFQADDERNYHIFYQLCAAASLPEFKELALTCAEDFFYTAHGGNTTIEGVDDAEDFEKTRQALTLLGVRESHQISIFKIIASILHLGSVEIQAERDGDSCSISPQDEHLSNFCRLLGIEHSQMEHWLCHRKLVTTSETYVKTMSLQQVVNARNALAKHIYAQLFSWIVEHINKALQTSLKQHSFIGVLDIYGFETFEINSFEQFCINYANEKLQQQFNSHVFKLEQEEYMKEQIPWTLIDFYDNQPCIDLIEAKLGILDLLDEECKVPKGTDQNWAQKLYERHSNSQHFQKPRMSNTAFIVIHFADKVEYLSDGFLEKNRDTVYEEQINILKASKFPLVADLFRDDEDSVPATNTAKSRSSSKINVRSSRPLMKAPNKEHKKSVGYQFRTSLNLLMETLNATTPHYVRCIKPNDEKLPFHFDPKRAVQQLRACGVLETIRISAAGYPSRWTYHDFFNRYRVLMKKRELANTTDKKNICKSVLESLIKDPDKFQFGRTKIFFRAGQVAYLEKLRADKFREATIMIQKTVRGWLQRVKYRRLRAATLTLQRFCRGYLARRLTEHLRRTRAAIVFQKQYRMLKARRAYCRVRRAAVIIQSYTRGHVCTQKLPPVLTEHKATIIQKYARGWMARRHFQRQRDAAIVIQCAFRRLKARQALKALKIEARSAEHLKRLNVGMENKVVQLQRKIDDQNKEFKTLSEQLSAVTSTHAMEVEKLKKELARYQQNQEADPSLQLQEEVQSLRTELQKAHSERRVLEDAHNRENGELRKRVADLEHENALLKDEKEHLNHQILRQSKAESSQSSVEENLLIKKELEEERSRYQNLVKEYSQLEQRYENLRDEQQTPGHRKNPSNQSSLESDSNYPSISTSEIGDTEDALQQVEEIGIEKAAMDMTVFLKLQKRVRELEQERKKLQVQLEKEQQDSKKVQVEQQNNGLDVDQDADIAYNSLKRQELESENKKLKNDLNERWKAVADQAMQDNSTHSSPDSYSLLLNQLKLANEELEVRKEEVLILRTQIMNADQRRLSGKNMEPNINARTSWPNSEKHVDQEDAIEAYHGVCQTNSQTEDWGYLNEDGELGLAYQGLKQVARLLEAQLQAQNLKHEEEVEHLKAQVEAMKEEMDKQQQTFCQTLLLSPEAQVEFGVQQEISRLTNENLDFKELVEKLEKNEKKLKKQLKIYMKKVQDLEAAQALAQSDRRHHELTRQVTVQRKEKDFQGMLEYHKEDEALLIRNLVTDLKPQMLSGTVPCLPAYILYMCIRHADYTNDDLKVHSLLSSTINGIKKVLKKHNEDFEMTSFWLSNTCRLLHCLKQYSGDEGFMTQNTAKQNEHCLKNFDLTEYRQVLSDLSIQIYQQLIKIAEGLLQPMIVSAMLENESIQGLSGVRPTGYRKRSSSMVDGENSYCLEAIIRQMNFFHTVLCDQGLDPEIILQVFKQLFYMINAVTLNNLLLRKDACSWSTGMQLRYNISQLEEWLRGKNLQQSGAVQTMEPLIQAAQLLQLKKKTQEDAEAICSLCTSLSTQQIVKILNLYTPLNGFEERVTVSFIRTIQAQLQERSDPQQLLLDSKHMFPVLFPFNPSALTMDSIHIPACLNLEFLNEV
UniProt Q00960, residues 27-1482: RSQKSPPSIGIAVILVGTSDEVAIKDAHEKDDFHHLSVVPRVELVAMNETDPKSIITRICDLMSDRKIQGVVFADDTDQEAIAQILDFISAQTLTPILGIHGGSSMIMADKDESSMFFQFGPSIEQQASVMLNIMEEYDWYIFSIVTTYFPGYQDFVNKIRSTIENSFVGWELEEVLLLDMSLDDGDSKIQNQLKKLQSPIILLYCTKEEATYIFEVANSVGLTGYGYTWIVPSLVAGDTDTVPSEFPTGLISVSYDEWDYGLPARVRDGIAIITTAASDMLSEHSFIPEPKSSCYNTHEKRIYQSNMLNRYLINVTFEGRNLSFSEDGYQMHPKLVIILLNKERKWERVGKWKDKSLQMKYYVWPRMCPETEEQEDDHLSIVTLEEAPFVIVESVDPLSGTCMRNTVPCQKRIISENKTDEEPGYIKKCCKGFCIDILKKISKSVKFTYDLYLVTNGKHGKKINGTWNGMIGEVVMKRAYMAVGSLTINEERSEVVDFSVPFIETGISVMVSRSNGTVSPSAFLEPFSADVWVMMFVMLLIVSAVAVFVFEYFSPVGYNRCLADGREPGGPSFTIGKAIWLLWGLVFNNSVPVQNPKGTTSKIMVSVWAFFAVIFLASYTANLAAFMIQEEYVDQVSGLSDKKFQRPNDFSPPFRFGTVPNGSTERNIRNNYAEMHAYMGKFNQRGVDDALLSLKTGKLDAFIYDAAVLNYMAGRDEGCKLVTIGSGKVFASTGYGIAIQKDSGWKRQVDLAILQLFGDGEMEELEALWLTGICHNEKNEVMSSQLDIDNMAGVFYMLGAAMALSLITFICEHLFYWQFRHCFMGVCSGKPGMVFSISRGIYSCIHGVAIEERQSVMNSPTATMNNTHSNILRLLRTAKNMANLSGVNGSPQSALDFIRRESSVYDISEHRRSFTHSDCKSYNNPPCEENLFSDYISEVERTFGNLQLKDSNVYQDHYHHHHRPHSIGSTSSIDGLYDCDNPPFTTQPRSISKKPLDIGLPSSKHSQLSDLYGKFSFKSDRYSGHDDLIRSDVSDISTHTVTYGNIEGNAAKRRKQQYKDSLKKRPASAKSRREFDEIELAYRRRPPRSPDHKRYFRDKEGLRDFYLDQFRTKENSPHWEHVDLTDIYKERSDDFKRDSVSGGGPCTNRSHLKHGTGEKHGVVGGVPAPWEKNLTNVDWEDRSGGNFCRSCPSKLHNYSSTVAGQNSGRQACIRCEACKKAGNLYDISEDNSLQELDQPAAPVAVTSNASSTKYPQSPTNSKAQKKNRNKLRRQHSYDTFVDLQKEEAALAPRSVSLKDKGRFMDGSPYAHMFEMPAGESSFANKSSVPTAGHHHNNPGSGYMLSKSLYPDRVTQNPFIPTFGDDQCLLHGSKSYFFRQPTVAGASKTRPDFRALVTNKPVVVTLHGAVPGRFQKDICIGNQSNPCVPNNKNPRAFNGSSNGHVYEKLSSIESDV

No constants are given. Whether binding was seen depends on the method and setting. In cells and extracts the contact can be indirect. Some results given as binding are weak or reduced against the parent protein; the word gives no strength.

Test [1] addresses NMDA receptor subunit GluN1 (rat (endogenous in hippocampus)) (UniProt P35439). Briefly: co-IP; total rat hippocampal lysates with primary antibody and Protein A/G agarose, 4°C; buffer pH 7.4, 0.05 mol/L HEPES, 0.15 mol/L NaCl, 0.5% NP-40, 1% Triton X-100; non-immune IgG as control; slices untreated or treated with PMA (0.5 umol/L, 10 min) and/or AIP (1 umol/L).
Test [2] has as its target myosin Va (rat (endogenous in hippocampus)) (UniProt Q9QYF3). Described as above.
Test [3] deals with myosin Vb (rat (endogenous in hippocampus)) (UniProt P70569). Described as above.
Test [4] deals with GST-MyoVa globular tail (amino acids 1,430-1,830) (rat) (UniProt Q9QYF3). Put plainly: pull-down; GST-MyoVa globular tail, medial tail or GST alone on glutathione resin mixed with total proteins from hippocampal slices or cultured hippocampal neurons, 4°C overnight; washed with PBS, 0.1% Triton X-100; immunoblot; only the target purified.
The target in test [5] is GST-MyoVa medial tail (amino acids 1,110-1,440) (rat) (UniProt Q9QYF3). The description is as above.

myosin Vb (from UniProt P70569 1-1846): in test [1], the binding result was “no binding”.
Consider myosin Va (from UniProt Q9QYF3 1-1828), for which the binding result in test [1] is on record as “binds”.
On to “NMDA receptor subunit GluN2B (from UniProt Q00960 27-1482)”, for which the results for the binding entry in test [2] and in test [3] were “binds” and “no binding”, respectively.
As for “NMDA receptor subunit GluN2A (from UniProt Q00959 23-1464)”, the binding result is reported as “binds” in test [2], “no binding” in test [3], “binds” in test [4] and “no binding” in test [5].
As for “NMDA receptor subunit GluN1 (from UniProt P35439 19-938)”, the binding result is “binds” in test [2], “no binding” in test [3], “binds” in test [4] and “no binding” in test [5].
